Experimental data: patent US20260138976A1 (Hoffmann-La Roche Inc., priority 2022, published 2026)
For part of its entries the source gives two or more results. They are shown here; other results are not. The source may hold further records. Values given together read as repeated measurements on other runs, samples or individuals.

Molecular target: T1, DGKα (hDGKalpha(1-735)-N-His) (Homo sapiens, UniProt P23743)
T1 construct: hDGKalpha(1-735)-N-His; His (N); made in house; host or cells: Sf21 insect cells (baculovirus)
Test: In vitro DGK inhibition assay, DGKalpha ADP Glo (in house)
Assay type: biochemical
Conditions: 4 nM DGKα, 25 μM ATP, 125 uM DLG in liposomes, 1 hour reaction
Protocol: DGKα and ζ kinases use ATP to phosphorylate the substrate 1,2-dilauroyl-sn-glycerol (DLG, incorporated in the liposomes). ATP is converted to ADP as a result of this enzymatic reaction. After the kinase reaction, an ATP-depletion reagent is added to terminate the kinase reaction and deplete any remaining ATP, leaving only ADP. Second, a detection reagent is added to simultaneously convert ADP to ATP and allow the newly synthesized ATP to be converted to light using a coupled luciferase/luciferin reaction.
Full length DGKα and ζ were expressed in Sf21 insect cells by infecting the cells with the baculovirus stock at MOI of 2. Purification of both enzymes was performed as previously described by Takahashi et al., PeerJ, 2018 (Takahashi, D.; Sakane, F. Expression and purification of human diacylglycerol 5 kinase alpha from baculovirus-infected insect cells for structural studies. PeerJ2018, 6, No. e5449).
A concentrated liposome solution was prepared in assay buffer without DTT and BSA: 2 mM of DLG in 21 mM of total liposome (2 mM DLG/8 mM PS/11 mM PC). […] After 1 hour reaction, the amount of ADP formed was detected with the ADP-Glo kinase assay (Promega) according to the manufacturer instructions. […] The multidrop combi was used as a liquid handler and luminescence was read with 0.5 s by the envision reader (PE).

T1 sequence (P23743 whole entry): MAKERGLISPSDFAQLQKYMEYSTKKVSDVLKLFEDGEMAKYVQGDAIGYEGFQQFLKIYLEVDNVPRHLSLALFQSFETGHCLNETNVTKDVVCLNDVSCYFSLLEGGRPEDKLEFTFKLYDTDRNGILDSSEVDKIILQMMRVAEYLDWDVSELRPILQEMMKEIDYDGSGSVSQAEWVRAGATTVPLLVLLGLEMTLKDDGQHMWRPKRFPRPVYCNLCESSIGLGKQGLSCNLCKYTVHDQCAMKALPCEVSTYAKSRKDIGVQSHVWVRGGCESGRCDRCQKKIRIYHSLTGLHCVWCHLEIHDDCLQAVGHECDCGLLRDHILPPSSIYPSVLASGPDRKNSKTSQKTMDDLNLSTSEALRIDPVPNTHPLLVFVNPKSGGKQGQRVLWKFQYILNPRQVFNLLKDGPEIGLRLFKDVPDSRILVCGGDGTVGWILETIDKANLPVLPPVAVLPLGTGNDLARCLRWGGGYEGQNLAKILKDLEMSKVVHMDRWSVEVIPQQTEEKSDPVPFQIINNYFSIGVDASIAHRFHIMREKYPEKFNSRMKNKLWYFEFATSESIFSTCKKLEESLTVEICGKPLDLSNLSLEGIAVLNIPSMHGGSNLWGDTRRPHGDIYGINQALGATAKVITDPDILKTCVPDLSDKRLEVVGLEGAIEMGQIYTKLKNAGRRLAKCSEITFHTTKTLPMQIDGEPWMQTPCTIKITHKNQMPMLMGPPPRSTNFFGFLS

In the case of `COc1ccc(-c2ccc(CN3C(=O)[C@@H](N)CS(=O)(=O)c4ccc(-c5nnc(C(C)(C)C#N)o5)cc43)cc2)cc1` [Example 45, 2-[5-[(3R)-3-amino-5-[[4-(4-methoxyphenyl)phenyl]methyl]-1,1,4-trioxo-2,3-dihydro-1λ^6,5-benzothiazepin-7-yl]-1,3,4-oxadiazol-2-yl]-2-methyl-propanenitrile], the IC50 is reported as 2.09 µM and 27.7 µM [lines of one column].
